{"source": "paper PMC4336329", "about": "(PLoS ONE, 2015)", "note": "Out of some 310,000 compounds screened, about 2,200 (0.71%) showed an effect of 50% or more. Effects have a minus sign here. The list shows a part of the results.", "data": [{"target": "human ether-à-go-go-related gene (hERG) potassium channel (human, UniProt Q12809)", "sequence (Q12809 whole entry, looked up)": "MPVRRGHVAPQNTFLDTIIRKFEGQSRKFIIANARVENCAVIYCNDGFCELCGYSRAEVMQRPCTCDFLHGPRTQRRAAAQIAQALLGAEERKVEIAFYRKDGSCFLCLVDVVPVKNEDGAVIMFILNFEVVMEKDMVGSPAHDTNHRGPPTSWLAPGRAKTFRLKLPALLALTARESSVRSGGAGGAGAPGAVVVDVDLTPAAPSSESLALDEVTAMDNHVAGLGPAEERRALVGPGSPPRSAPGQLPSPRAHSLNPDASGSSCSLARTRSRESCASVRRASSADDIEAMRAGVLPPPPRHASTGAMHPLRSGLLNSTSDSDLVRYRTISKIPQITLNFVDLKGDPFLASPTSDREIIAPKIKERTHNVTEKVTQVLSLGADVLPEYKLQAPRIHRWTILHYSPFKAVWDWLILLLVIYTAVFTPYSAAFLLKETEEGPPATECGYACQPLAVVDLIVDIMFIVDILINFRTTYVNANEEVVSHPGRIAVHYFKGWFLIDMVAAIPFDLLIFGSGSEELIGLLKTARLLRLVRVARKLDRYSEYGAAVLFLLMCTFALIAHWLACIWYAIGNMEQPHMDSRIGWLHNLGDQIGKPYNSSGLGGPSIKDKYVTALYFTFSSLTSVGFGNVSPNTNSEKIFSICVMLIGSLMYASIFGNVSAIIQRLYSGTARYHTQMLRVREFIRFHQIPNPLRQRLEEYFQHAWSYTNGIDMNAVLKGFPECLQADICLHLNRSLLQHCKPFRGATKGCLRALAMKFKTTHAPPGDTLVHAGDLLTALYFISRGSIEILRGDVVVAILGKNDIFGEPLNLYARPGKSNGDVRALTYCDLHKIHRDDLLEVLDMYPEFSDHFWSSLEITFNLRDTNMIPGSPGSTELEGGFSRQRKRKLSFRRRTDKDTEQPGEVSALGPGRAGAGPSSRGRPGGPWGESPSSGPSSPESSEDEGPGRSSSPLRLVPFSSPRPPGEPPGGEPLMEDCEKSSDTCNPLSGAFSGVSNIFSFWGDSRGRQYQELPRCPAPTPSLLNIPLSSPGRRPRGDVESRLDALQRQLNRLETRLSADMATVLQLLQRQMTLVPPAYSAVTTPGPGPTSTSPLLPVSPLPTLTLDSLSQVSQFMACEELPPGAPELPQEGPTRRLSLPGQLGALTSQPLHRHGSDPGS", "assay": "primary screen, population patch clamp on CHO cells stably expressing hERG", "units": {"hERG current change (%, negative = inhibition) at 1uM": "%"}, "values": [{"smiles": "CC(C)COC(=O)c1cccc2c1-c1ccccc1/C2=N\\O", "hERG current change (%, negative = inhibition) at 1uM": 13.1}, {"smiles": "CCOc1ccc(CC(=O)Nc2c(C(N)=O)oc3ccc(Br)cc23)cc1OCC", "hERG current change (%, negative = inhibition) at 1uM": -12.4}, {"smiles": "Cc1ccc(S(=O)(=O)Nc2ccccc2-c2ccccc2NS(=O)(=O)c2ccc(C)cc2)cc1", "hERG current change (%, negative = inhibition) at 1uM": 12.4}, {"smiles": "CCc1ccccc1Nc1nc2ccccc2[nH]1", "hERG current change (%, negative = inhibition) at 1uM": 8.79}, {"smiles": "COc1ccccc1NS(=O)(=O)c1ccc(O)c(C(=O)OCC(=O)Nc2ccccc2F)c1", "hERG current change (%, negative = inhibition) at 1uM": -0.604}, {"smiles": "COC(=O)Cc1ccc(OC(=O)C2CCN(S(=O)(=O)c3ccc(OC)c(OC)c3)CC2)cc1", "hERG current change (%, negative = inhibition) at 1uM": 15.5}, {"smiles": "O=C(c1ccccc1N1CCOCC1)N1CCCC(Nc2ccc(F)cc2)C1", "note": "(centres unmarked)", "hERG current change (%, negative = inhibition) at 1uM": 13}, {"smiles": "C=CCN1C(=O)C2(C(C#N)=C(N)Oc3n[nH]c(CCC)c32)c2ccccc21", "note": "(centres unmarked)", "hERG current change (%, negative = inhibition) at 1uM": 12.9}, {"smiles": "O=P(c1ccccc1)(c1ccccc1)c1nc(-c2ccc(Cl)cc2)oc1N1CCOCC1", "hERG current change (%, negative = inhibition) at 1uM": -12.1}, {"smiles": "Cc1ccc(-n2c3c(cc(C(=O)N4CCN(C)CC4)c2=O)C(=O)CC(C)(C)C3)cc1", "hERG current change (%, negative = inhibition) at 1uM": 1}, {"smiles": "COCCNc1nnc(SCC(=O)c2c[nH]c3ccccc23)s1", "hERG current change (%, negative = inhibition) at 1uM": 14.3}, {"smiles": "COc1ccc(CN(C)C(=O)c2cc(S(=O)(=O)Nc3ccccc3F)ccc2C)c(OC)c1", "hERG current change (%, negative = inhibition) at 1uM": 1.52}, {"smiles": "S=c1[nH]nc(-c2ccco2)n1C1CCCCC1", "hERG current change (%, negative = inhibition) at 1uM": 14.6}, {"smiles": "CCOC(=O)N1CCN(S(=O)(=O)c2ccc(C)c(C(=O)NC3CCCCC3)c2)CC1", "hERG current change (%, negative = inhibition) at 1uM": 5.65}, {"smiles": "C=C1CC(C(=O)N/N=C/c2ccccc2)C1", "hERG current change (%, negative = inhibition) at 1uM": 18.3}, {"smiles": "Cc1ccnc(NC(=O)c2sc3ccccc3c2Cl)c1", "hERG current change (%, negative = inhibition) at 1uM": -13.5}, {"smiles": "Cc1ccccc1CN1C(=O)c2ccccc2Sc2ccc(C(=O)O)cc21", "hERG current change (%, negative = inhibition) at 1uM": 6.76}, {"smiles": "COc1ccc(CNCCNC(=O)c2ccco2)c(OC)c1OC", "hERG current change (%, negative = inhibition) at 1uM": -0.0852}, {"smiles": "CCc1nc(NCCc2ccccn2)c2nnn(Cc3ccccc3F)c2n1", "hERG current change (%, negative = inhibition) at 1uM": 8.2}, {"smiles": "O=C1[C@H]2[C@@H](c3ccc(F)cc3)N3C(=O)N(c4cccc(Br)c4)C(=O)[C@@]3(Cc3ccc(Cl)cc3)[C@H]2C(=O)N1C1CCCCC1", "hERG current change (%, negative = inhibition) at 1uM": 12.8}, {"smiles": "O=C(NCc1cccnc1)c1nn2cccnc2c1Cl", "hERG current change (%, negative = inhibition) at 1uM": 7.62}, {"smiles": "O=C(O)CCCCOn1ccnc1", "hERG current change (%, negative = inhibition) at 1uM": 13.6}, {"smiles": "COC(=O)c1ccccc1-n1cccc1C(=O)NP(=O)(N1CCOCC1)N1CCOCC1", "hERG current change (%, negative = inhibition) at 1uM": 13}]}]}
